Test results from paper PMC12136788.
The other results are listed elsewhere or left out.

T1: UNK ZnF1-3 (human, UniProt Q9C0B0 31-174)
T1 sequence: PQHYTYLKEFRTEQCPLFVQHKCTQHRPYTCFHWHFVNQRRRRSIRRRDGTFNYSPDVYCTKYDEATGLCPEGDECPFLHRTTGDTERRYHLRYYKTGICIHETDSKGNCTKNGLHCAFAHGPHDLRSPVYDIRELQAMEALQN

B1: chr15:78798593:78798594:+_ENSMUSG00000033088_ENSMUST00000109689|mus_mus|FALSE|FALSE (ssRNA)
RNA: GGGAGUUCUACAGUCCGACGAUCCCCAGGAGGAUCCUGGAAGAAGAGGGAAGGCUCGGGGGCCUGGCGUGGCGGGGAGGAGAAGGAGGGAGCGUCUCUGUGUCCGAUACAUACAGGAGUGGGAAUGUGGGGCGGCUCAUGCAUCAACAGAGGAUUGAGCAUCA
B2: chr1:220276048:220276049:+_ENSG00000067704_ENST00000302637|hu_hu|hu_hu_hu_mus_True|48_108 (ssRNA)
RNA: GGGAGUUCUACAGUCCGACGAUCGCAAACAGCUUCAUUGGCGGGAAUUGUCCAAGGCUGGGUGGUCCAAACUAAAACGCUAACAGGAGAUGAACCAUCUGUAAGAGACUCCAACUUCGGAGGAGGUCUCAGGAGGGGGAAUCUCAACAGAGGAUUGAGCAUCA
B3: chr2:232320318:232320319:-_ENSG00000115053_ENST00000322723|hu_hu|hu_hu_hu_mus_True|48_78 (ssRNA)
RNA: GGGAGUUCUACAGUCCGACGAUCACUAUUAAAGUCUACAAAACCAAACCCUUUGGAGGACCCAGUUUCCCGAUCAGUGACUAUUCUUGCCCGAACGGAGCCCUCAAAUGAUUCUUUUAAGGUCUCUUCAGUGGUAUCCUCAGACAACAGAGGAUUGAGCAUCA
B4: chr5:116376479:116376480:+_ENSMUSG00000029516_ENSMUST00000051704|mus_mus|FALSE|FALSE (ssRNA)
RNA: GGGAGUUCUACAGUCCGACGAUCCUGCUCCAGGAGGGAUCUCUGAGUCUCAGAGGCCUUCAGCUCCACCUCCUUCUGACUAAGCACAGCCUCCACCUCUGACACUCUGCGAUGUAACCGGGUCAUUUCCUGCUCCAUCUUGUGCAACAGAGGAUUGAGCAUCA
B5: chr8:133025090:133025091:+_ENSG00000132294_ENST00000254624|hu_mus|motif|central (ssRNA)
RNA: GGGAGUUCUACAGUCCGACGAUCGAAAAGACUAACUGCAAUGGUUUUCCUUUGCAUGCAAAGCAUGCCUUUUAAAAUCACGGAGAAACACAACAUUUUGUACAGCAAAGCUUGUGUUCUGCAUGAAUGCAAGUGAAUAUAUAUCAACAGAGGAUUGAGCAUCA
B6: chr2:157388187:157388188:+_ENSMUSG00000067786_ENSMUST00000109526|mus_hu|motif|central (ssRNA)
RNA: GGGAGUUCUACAGUCCGACGAUCUUUUGUAGAGGUGGUCCCUGUCCUCCAGGAGCUUACAAUCUAGCUGGGGAGACACAACGGAUGCACACUUAAACAAUCAGUACAAUUAGCGAUUACCACAAUAUUGACCACAACUGCAUGCAACAGAGGAUUGAGCAUCA
B7: chr17:45747064:45747065:+_ENSG00000108424_ENST00000290158|hu_hu|hu_hu_hu_mus_True|58_58 (ssRNA)
RNA: GGGAGUUCUACAGUCCGACGAUCGCCCACAGUCCACGCUGUUGUGUCUCGAACAACUACACUGGGGUCUUUCAUUAAUUCUAUUAGGGUGGGCAUAGCCUGUAUGACUAAUGGUUUCAGUUGAUUAGGCUCUGGUCCUUCCAACAACAGAGGAUUGAGCAUCA
B8: 53237077_53237197_787_CDS_ENSG00000162378_ENST00000294353|human|control|control (ssRNA)
RNA: GGGAGUUCUACAGUCCGACGAUCCCGAACUACAUCCAGUAUCUGGGUAGUUGUCAUUUUUAAACAUUUCAAGUGGUGCAUGGUUAGAGACUUGAGUCGGUCUUUGCAGGCCAGUAGAGCAGUGAUGUCUGUGAUUGAGGUGUUCAACAGAGGAUUGAGCAUCA
B9: chr1:87185206:87185207:+_ENSG00000097033_ENST00000482504|hu_mus|motif|central (ssRNA)
RNA: GGGAGUUCUACAGUCCGACGAUCCGGGUUGUUUAUACGACUUGGUGCUUUUCUAUCCAGUUUCUCAUAAACAAAUUCUUCGGUCCUGGCAUUUGGAUUUGGCUGCAACAGCACUUCGGUCUGCUUCAUUAUCUUUUCUGUCCACAACAGAGGAUUGAGCAUCA
B10: chr18:24791317:24791318:+_ENSMUSG00000024271_ENSMUST00000025120|mus_mus|FALSE|FALSE (ssRNA)
RNA: GGGAGUUCUACAGUCCGACGAUCACUUCCAGUGAAGAAGUACUUGUUAUCAGGACUCCAGUCACAAGACCAAAUGAUUCUACUAUGCACAGAAGUAAUUUUGUUGGUGAAUGCAAAGAGACUAAAAAAUGGAUCAAACUCCGACAACAGAGGAUUGAGCAUCA
B11: chr7:54825262:54825263:-_ENSG00000132432_ENST00000352861|hu_hu|hu_hu_hu_mus_False|18_68 (ssRNA)
RNA: GGGAGUUCUACAGUCCGACGAUCCUGCCGGCUGGGCUCCACAAACUGCAUUACCUGAUCCAUGUUUUACCCAACCGGGAUUGAGAGCGUAGAGACACGUAGCUCAGGAGAGAACCGGAUGGAGGCCAACCGGAAGCUGGCAACCAACAGAGGAUUGAGCAUCA
B12: chr4:17845017:17845018:+_ENSG00000109805_ENST00000514176|hu_mus|hu_hu_hu_mus_False|28_38 (ssRNA)
RNA: GGGAGUUCUACAGUCCGACGAUCGCUCUCUUAACUUGUAUCUUCAUUAAGGAACUCUGCAAGGUUAAGUUUACUUUUCUGUAGCGCAGCUGUUUUGCUCGUCUUGGUAGUCUCAUCCUUCAUUUCUGAUGGUGGUUCAUGAUCCAACAGAGGAUUGAGCAUCA
B13: chr12:25362807:25362808:-_ENSG00000133703_ENST00000311936|hu_hu|motif|central (ssRNA)
RNA: GGGAGUUCUACAGUCCGACGAUCUUUCUUCUUUUUACCAUCUUUGCUCAUCUUUUCUUUAUGUUUUCGAAUUUCUCGAACGGAUGUAUAGAAGGCAUCAUCAACACCCUGUCUUGUCUUUGCUGAUGUUUCAAUAAAAGGAAUCAACAGAGGAUUGAGCAUCA
B14: chr5:71493418:71493419:+_ENSG00000131711_ENST00000296755|hu_hu|FALSE|FALSE (ssRNA)
RNA: GGGAGUUCUACAGUCCGACGAUCUUCUUCAAAAGGACUUUCGGCACCUCUGCCAGAAGCCUUGUCAUCAGCACUUAGAAAACUUUCAUAAGCAGACUCGGAUCCAAUGAGGGGCGGGCUGCGUAAAGGAGACAAAACUUUUUCCAACAGAGGAUUGAGCAUCA
B15: chr2:166765161:166765162:+_ENSMUSG00000002718_ENSMUST00000002790|mus_mus|FALSE|FALSE (ssRNA)
RNA: GGGAGUUCUACAGUCCGACGAUCAGACAAGCAUAUUGCUUCAAACAUGUAGUGAUUGAAAUGAGGUUUACUGGGAUUCUUACUAACAGCCAGCAGCUUCUGUGUGAGCUGCGUGAUGAGAGUGGGGAUAUAGGGGAUGAUGGCCAACAGAGGAUUGAGCAUCA
B16: chr5:137904717:137904718:-_ENSG00000113013_ENST00000297185|hu_mus|FALSE|FALSE (ssRNA)
RNA: GGGAGUUCUACAGUCCGACGAUCAGAAUAGAGUUUUCCAUGAGCCUCAACCCAAGCAUCACCAUUGGAGGCACGGACAAUUUUAAAAGGAACAUUCUUAGUGUCUUUCUGUACUUCAGGGUCAUCAUAUCGUCGUCCAAUAAGCAACAGAGGAUUGAGCAUCA
B17: chr2:69032557:69032558:-_ENSMUSG00000005233_ENSMUST00000005365|mus_mus|FALSE|FALSE (ssRNA)
RNA: GGGAGUUCUACAGUCCGACGAUCAUUGGCAAGAAAAGCUGAAAAAUUGUUGGUCUUCCUGACUUUCUCCUGAAAUUCUGCUAGGCACUCAAGAUGAGGCGAACUGUCGUACACUUCAUAUUCCUUAGCUUCAUUUAUGCUCAUCAACAGAGGAUUGAGCAUCA
B18: chr5:128440902:128440903:+_ENSG00000066583_ENST00000173527|hu_mus|hu_hu_hu_mus_True|18_18 (ssRNA)
RNA: GGGAGUUCUACAGUCCGACGAUCUUGAACGGUGCUGCCAAGUCCUUUGGGGUAUUGUUCCGUUAUGAUAACUGGAAUCCCUAAGAUCCGAGCUCCUUGCAACAGUCUCUGUCCCACGCUAAUAAUAUCCCCAAAGUAUUUGAUCAACAGAGGAUUGAGCAUCA
B19: chr7:65705844:65705845:+_ENSG00000169902_ENST00000304842|hu_mus|hu_hu_hu_mus_False|8_108 (ssRNA)
RNA: GGGAGUUCUACAGUCCGACGAUCAAAAGGAUCUUUAUUACAUAAAUAAGGUGCCGGCUCCCCAUGUUUAACAAUGACCUCCAGAAGGAAGGCUUGCAUGGCAGAAUCUAGCACUUCAUCUGUGACACCAGCCUCAUCCAAGCGCAACAGAGGAUUGAGCAUCA
B20: 21840765_21841110_688_3pUTR_ENSMUSG00000003410_ENSMUST00000003501|mouse|control|control (ssRNA)
RNA: GGGAGUUCUACAGUCCGACGAUCUUGGUCUGCAGUUUGAGGCCAUUGAGGGUGUUGAUGGCUUUGUCUGCAUCAUUGGGGUCAGAGUAGUUCACAAACCCAUAGCCCAGGCUCUGCCCUGUGAUCUUAUCCCGAACCAACUUGCAACAGAGGAUUGAGCAUCA
B21: chr17:62496016:62496017:-_ENSG00000108654_ENST00000581693|hu_mus|FALSE|FALSE (ssRNA)
RNA: GGGAGUUCUACAGUCCGACGAUCCUGAUAACACACAAUAUAAAGAGCAAUUAUGAAAAACAGACAUUUACAUAUACUUCUAAAGUCUUAUUGAGAAUACCCUGUUGGCAUGGGAUAGCCAAUCAUAGGCGCAGCAGCUGCGGUCAACAGAGGAUUGAGCAUCA
B22: chr15:57879074:57879075:-_ENSMUSG00000022361_ENSMUST00000070143|mus_mus|FALSE|FALSE (ssRNA)
RNA: GGGAGUUCUACAGUCCGACGAUCCCAGCUGUCUGUGUGAAGAAAUCAGCAAAUUGCAGCAUUUGGGAAUUGCUAAUAAAGCUAUAGUUAAAAAAUAAAAAGUUUAUCAAAAUGAAAGCAGCAUGCAUAGUCAAGGCUUUAUCACAACAGAGGAUUGAGCAUCA

Each binder was assayed against T1, UNK ZnF1-3 (assay: nsRBNS (natural sequence RNA bind-n-seq); RBNS binding buffer (assumed for nsRBNS): 25 mM Tris pH 7.5, 150 mM KCl, 3 mM MgCl2, 0.01% Triton X-100, 500 ug/ml BSA, 20 U/ml SUPERase-In, 4 C; UNK is unkempt and MSI1 is Musashi-1; names of the RNAs are library labels; protein concentration not given here; high values mean tight binding).

Binder	binding signal [enrichment R]
B1	2.17
B2	1.63
B3	0.522
B4	0.605
B5	0.586
B6	1.43
B7	0.57
B8	0.911
B9	0.329
B10	1.22
B11	1
B12	0.371
B13	0.486
B14	1.07
B15	1.64
B16	1.46
B17	0.878
B18	0.754
B19	0.727
B20	0.714
B21	1.11
B22	2.91
